The record followed here is the supplement of paper PMC4604168 (melanoma cell lines).

Structures are written as SMILES. Some of the results follow. Most values come without repeats; read them as rough.
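Note: cells treated in 1,536-well plates, then fixed and DAPI-stained, with nuclei counted from automated high-throughput microscope images.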

The test deals with A2058. The experiment in a line: cell count relative to DMSO control; melanoma cells; higher = more viable cells. The following applies: library dose: standard library concentration; 72 h.
As to `O=C1NC(=O)/C(=C/c2ccc(-c3ccc(F)cc3O)o2)S1` + O=C(Oc1ccc([N+](=O)[O-])cc1)N1CCC(C(O)(c2ccc3c(c2)OCO3)c2ccc3c(c2)OCO3)CC1 [JZL184] (first compound 5 µM, partner dose 5 µM), the cell count amounted to 102%.
To `CC(C)C[C@H](NC(=O)[C@H](Cc1ccccc1)NC(=O)c1cnccn1)B(O)O` [Bortezomib] + N.N.[Cl][Pt][Cl] [cisplatin] (first compound 0.005 µM, partner dose 8 µM) belongs 12.7%; to `C#Cc1cccc(Nc2ncnc3cc(OCCOC)c(OCCOC)cc23)c1` [erlotinib] + C[As](C)SC[C@H](NC(=O)CC[C@H](N)C(=O)O)C(=O)NCC(=O)O [Darinaparsin] (first compound 4 µM, partner dose 2 µM), 60.8%; to `CC(C)C[C@H](NC(=O)[C@H](Cc1ccccc1)NC(=O)c1cnccn1)B(O)O` [Bortezomib] + O=C(Oc1ccc([N+](=O)[O-])cc1)N1CCC(C(O)(c2ccc3c(c2)OCO3)c2ccc3c(c2)OCO3)CC1 [JZL184] (first compound 0.005 µM, partner dose 5 µM), 16%.
Turning to `Cc1nc(Nc2ncc(C(=O)Nc3c(C)cccc3Cl)s2)cc(N2CCN(CCO)CC2)n1` [dasatanib] + O=C(Oc1ccc([N+](=O)[O-])cc1)N1CCC(C(O)(c2ccc3c(c2)OCO3)c2ccc3c(c2)OCO3)CC1 [JZL184] (first compound 0.02 µM, partner dose 5 µM), the cell count stood at 62.3%.
